Experiment [1] has as its target MBP (maltose binding protein) (UniProt P0AEX9 = MBP). The experiment in a line: far-Western (spot on nitrocellulose, anti-MBP antiserum detection). The protocol: (§1) After spotting 1 μg of GST or GST-KIAA0596CT on nitrocellulose membranes (Schleicher & Schuell BioScience, BA85), the membranes were incubated at room temperature in TBST (10 mM Tris-HCl, pH 7.5/0.15M NaCl/0.05% Tween 20) containing 5% skim milk. After rinsing the membranes with TBST, they were incubated overnight at 4° C. in TBST containing 1.0 μg/ml of MBP-JNK3 or MBP. After washing the membranes with TBST, bound MBP-JNK3 was detected by immunoblotting using anti-MBP antiserum (New England Biolabs Inc.) as the primary antibody, and HRP-conjugated anti-rabbit IgG antibody (Amersham Pharmacia Biotech, Inc.) as the secondary antibody (FIG. 5). An ECL Western Blotting Detection Kit (Amersham Pharmacia Biotech, Inc.) was used for the detection.

Experiment [2] addresses MBP-JNK3 (fusion protein of human JNK3 (JNK3α1) with an N-terminal maltose binding protein) (human, UniProt P53779-2 1-422, limits assumed). The description is as above. How it is done:
as §1

B1: GST-KIAA0596CT (N-terminal GST fusion protein of human KIAA0596CT, the C-terminal region, […], of KIAA0596) (other)
chain: [about 200 residues omitted]LSQEEGVFAQDLEPAPIEDGIVYPEPSDNPTMDTSEFQVQAPARGTLGRVYPGSRSSEKHSPDSACSVDYSSSCLSSPEHPTEDSESTEPLSVDGISSDLEEPAEGDEEEEEEEGGMGPYGLQEGSPQTPDQEQFLKQHFETLASGAAPGAPVQVPERSESRSISSRFLLQVQTRPLREPSPSSSSLALMSRPAQVPQASGEQPRGNGANPPGAPPEVEPSSGNPSPQQAASVLLPRCRLNPDSSWAPKRVATASPFSGLQKAQSVHSLVPQERHEASLQAPSPGALLSREIEAQDGLGSLPPADGPPSRPHSYQNPTTSSMAKISRSISVGENLGLVAEPQAHAPIRVSPLSKLALPSRAHLVLDIPKPLPDRPTLAAFSPVTKGRAPGEAEKPGFPVGLGKAHSTTERWACLGEGTTPKPRTECQAHPGPSSPCAQQLPVSSLFQGPENLQPPPPEKTPNPMECTKPGAALSQDSAVSLEQCEQLVAELRGSVRQAVRLYHSVAGCKMPSAEQSRIAQLLRDTFSSVRQELEAVAGAVLSSPGSSPGAVGAEQTQALLEQYSELLLRAVERRMERKL
notes: Expressed in E. coli BL21-SI from pDEST15 and purified on Glutathione Sepharose 4B; also called fusion protein of KIAA0596CT and GST
As for B1, the binding result in experiment [1] is recorded as “no binding”.

B2: GST (glutathione S-transferase) (other)
chain: not shown
notes: Negative control in the far-Western assay and in all kinase assays
For B2, the binding result in experiment [2] is on record as “no binding (tested: 1.0 µg/ml of MBP-JNK3; 1 µg GST spotted)”.
